Sequences with one replicate were seen in a single cluster, so their values are uncertain.
Tested on: ATP
Experiment: switch fluorescence ratio, 500 uM ATP over buffer (Cy3 cluster intensity, sum of 5 cycles each) (fold (ratio)); higher = stronger signal-on switching upon ATP binding; sequences stand for … in TCGTCGGCAGCGTCAGATGTGTATAAGAGACAGTTTTTTTTTTTTTTTTTTTTTTTTT…TC
Settings: aptamer strand: ATP DNA aptamer (quencher-CACCTGGGGGAGTATTGCGGAGGAAGG + anchor), 100 nM annealed; ATP concentration: 500 uM; one replicate
Method in brief: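 Values give the fluorescence ratio for each switch-domain sequence, averaged from per-cluster ratios of summed target-cycle to summed buffer-cycle Cy3 intensity. The Cy3-labelled switching-strand clusters sat on a modified Illumina MiSeq flow-cell, were annealed to 100 nM quencher-labelled ATP aptamer, and were imaged in selection buffer, then after 15 min with 500 uM ATP at 22 °C. Five cycles ran with NaOH stripping and re-annealing between them, and clusters outside 100-1000 RFU were excluded.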
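Further: ATP exposure 15 min at 22 °C before imaging.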

Row | Sequence | switch fluorescence ratio
1 | GTTCGCCGTC | 0.968
2 | GTTCTAAGAG | 0.995
3 | GTTCTAGTTC | 0.983
4 | GTTCTATAGA | 1.04
5 | GTTCTCAGG | 1.05
6 | GTTCTCCTCG | 1.08
7 | GTTCTCGCCG | 0.987
8 | GTTCTGAAAA | 1.04
9 | GTTCTGGAGT | 1.12
10 | GTTCTGGG | 1.01
11 | GTTCTTCCGC | 1.31
12 | GTTCTTTCGC | 1.08
13 | GTTGACGAGG | 0.996
14 | GTTGAGCGAC | 1.05
15 | GTTGAGCGAT | 1.05
16 | GTTGAGCGCG | 1.04
17 | GTTGAGGCGC | 0.963
18 | GTTGAGTATG | 0.995
19 | GTTGATCTCT | 1.02
20 | GTTGATTGTT | 0.995
21 | GTTGCAAAGT | 1.13
22 | GTTGCAGGAC | 1.41
23 | GTTGCATGTT | 0.973
24 | GTTGCCAACG | 1.03
25 | GTTGCCGGCA | 0.981
26 | GTTGCTCGTG | 0.996

Row | Sequence | switch fluorescence ratio
27 | GTTGCTGATG | 0.976
28 | GTTGGAATTC | 0.967
29 | GTTGGACACT | 1.01
30 | GTTGGACCCC | 1.01
31 | GTTGGATTTT | 1.04
32 | GTTGGCCTTC | 1
33 | GTTGGGCAGA | 0.949
34 | GTTGGTGCGT | 1.04
35 | GTTGGTGGG | 1.04
36 | GTTGGTGTCA | 1.02
37 | GTTGGTTG | 0.985
38 | GTTGTAAGCC | 1
39 | GTTGTAGAGC | 0.978
40 | GTTGTAGGCG | 1.02
41 | GTTGTAGGCT | 1
42 | GTTGTCATTC | 0.974
43 | GTTGTGCATG | 0.977
44 | GTTGTTAAAA | 0.977
45 | GTTGTTAAAG | 0.995
46 | GTTGTTATCT | 0.986
47 | GTTGTTCATT | 0.98
48 | GTTGTTCGTG | 0.974
49 | GTTGTTGCG | 1.09
50 | GTTTAACATC | 1.05
51 | GTTTACTCGC | 1.05
52 | GTTTACTCTA | 1.03

Row | Sequence | switch fluorescence ratio
53 | GTTTACTTGG | 1.03
54 | GTTTAGCCT | 1.03
55 | GTTTATCAGC | 1.03
56 | GTTTATCCTT | 1.04
57 | GTTTCAGAG | 0.991
58 | GTTTCAGGAT | 1.02
59 | GTTTCATCT | 0.99
60 | GTTTCCAGAT | 0.982
61 | GTTTCCTGAA | 0.985
62 | GTTTCCTGAT | 0.971
63 | GTTTCGAACT | 1.02
64 | GTTTCGGACT | 0.963
65 | GTTTCTCTGT | 0.993
66 | GTTTCTTATC | 1.02
67 | GTTTGAGACA | 1
68 | GTTTGAGAGT | 0.989
69 | GTTTGATTCG | 1.02
70 | GTTTGCGT | 0.979
71 | GTTTGGACTG | 0.97
72 | GTTTGGGGA | 1.01
73 | GTTTGGTGCT | 1.04
74 | GTTTGTCATC | 1.03
75 | GTTTGTCCTA | 1
76 | GTTTGTGATC | 0.975
77 | GTTTGTGTGC | 0.987
78 | GTTTTCAGTG | 1.02

Row | Sequence | switch fluorescence ratio
79 | GTTTTGAACT | 1.05
80 | GTTTTGAATA | 0.995
81 | GTTTTGCGAC | 1
82 | GTTTTTCAAC | 0.956
83 | GTTTTTCCGC | 1.26
84 | GTTTTTCTGA | 1
85 | GTTTTTCTTG | 0.988
86 | GTTTTTGATT | 1.04
87 | GTTTTTGCC | 1.09
88 | TAAAAAATGC | 1.06
89 | TAAAAATCCA | 1.01
90 | TAAAACACGT | 1.05
91 | TAAAACCGTG | 1.01
92 | TAAAACCTTT | 1.13
93 | TAAAATAGCT | 0.991
94 | TAAAATATGA | 1.01
95 | TAAAATGCAG | 0.96
96 | TAAACCGGAT | 1.03
97 | TAAACTGTCT | 1.03
98 | TAAACTTTAC | 1.22
99 | TAAAGATCCC | 1.05
100 | TAAAGCAACA | 1.03
101 | TAAAGCAGTG | 1.06
102 | TAAAGCCAAG | 0.991
103 | TAAAGGAGT | 1.02
104 | TAAAGGCG | 1.03

Row | Sequence | switch fluorescence ratio
105 | TAAAGGCGAA | 1.03
106 | TAAAGGGACG | 1.09
107 | TAAAGGTCCT | 1.05
108 | TAAAGTGCT | 0.985
109 | TAAAGTTAT | 0.992
110 | TAAAGTTTCC | 1.39
111 | TAAATCGTTC | 1.05
112 | TAAATCTGAA | 1.01
113 | TAAATGCGTA | 1
114 | TAAATGGTAC | 1.03
115 | TAAATTTCCA | 0.982
116 | TAACAAGCG | 0.985
117 | TAACAAGGCG | 1.05
118 | TAACAAGTTT | 1.01
119 | TAACACTATA | 1.02
120 | TAACACTTGA | 1
121 | TAACAGCATG | 1.04
122 | TAACAGCTTA | 1
123 | TAACATCGGG | 1.05
124 | TAACATTAAT | 1.04
125 | TAACCAGAAC | 1.14
126 | TAACCAGCTA | 1.01
127 | TAACCGAGCA | 1.28
128 | TAACCGGTAG | 0.986
129 | TAACGACGTG | 1.01
130 | TAACGATCCT | 1.05

Row | Sequence | switch fluorescence ratio
131 | TAACGCATGA | 1.27
132 | TAACGCTTGA | 1.05
133 | TAACGGCCTG | 1.75
134 | TAACGGGGTG | 1.03
135 | TAACGGGTGC | 1.17
136 | TAACGGTCTC | 0.989
137 | TAACGGTTTC | 1.15
138 | TAACGTAGAT | 1.06
139 | TAACGTGCTC | 1.01
140 | TAACGTTGAC | 1.09
141 | TAACTAATCA | 0.973
142 | TAACTAGTCC | 0.976
143 | TAACTCTACG | 1.2
144 | TAACTCTCGT | 1.06
145 | TAACTGGGAC | 1.03
146 | TAACTGTTCT | 1.06
147 | TAACTTAAAA | 1.17
148 | TAACTTCCTC | 2.44
149 | TAACTTGGTC | 1.02
150 | TAAGAAACAG | 0.999
151 | TAAGAACAA | 1.15
152 | TAAGAACGGA | 1
153 | TAAGAAGTTC | 0.974
154 | TAAGACAGGT | 0.997
155 | TAAGACGTCT | 0.972
156 | TAAGAGACAT | 1.03

Row | Sequence | switch fluorescence ratio
157 | TAAGAGATAT | 0.971
158 | TAAGAGCCGG | 1.02
159 | TAAGAGGAAA | 0.977
160 | TAAGAGGCTG | 0.945
161 | TAAGATATAC | 1.09
162 | TAAGATGAGT | 1.04
163 | TAAGATGGTA | 0.977
164 | TAAGATTGCT | 0.955
165 | TAAGCCCTG | 0.997
166 | TAAGCGGTTT | 1.02
167 | TAAGCTCCAT | 0.991
168 | TAAGCTGAAA | 0.955
169 | TAAGCTTCTA | 1.03
170 | TAAGCTTGAA | 1
171 | TAAGGACAAG | 1.02
172 | TAAGGACTGT | 1.03
173 | TAAGGCTACG | 1.01
174 | TAAGGCTGGT | 1.02
175 | TAAGGCTTGG | 0.973
176 | TAAGGGAACG | 0.961
177 | TAAGGGTGAA | 0.959
178 | TAAGGTATTC | 1.03
179 | TAAGGTCATT | 1
180 | TAAGTAGATA | 1.01
181 | TAAGTCAAC | 0.979
182 | TAAGTCAGGC | 0.99

Row | Sequence | switch fluorescence ratio
183 | TAAGTCATGT | 0.946
184 | TAAGTCGTCG | 1.01
185 | TAAGTGACAT | 0.995
186 | TAAGTGCAA | 1.22
187 | TAAGTTAGGC | 0.992
188 | TAAGTTCTGT | 0.971
189 | TAAGTTCTTG | 0.989
190 | TAATACCATG | 0.994
191 | TAATAGAGAA | 0.971
192 | TAATATAAAA | 0.997
193 | TAATATACAT | 1.04
194 | TAATATCCG | 1.08
195 | TAATATCGAC | 1.1
196 | TAATCAATAC | 3.27
197 | TAATCACGCT | 1
198 | TAATCAGAT | 1.02
199 | TAATCCCGGA | 1.04
200 | TAATCCTCCT | 1.15
201 | TAATCGGGAC | 0.993

Reference: the supplement of paper PMC10126150
